# In all, about 33,000 sequences were measured (“E-score (-0.5 to 0.5)”: median about -0.013, highest 2% from about 0.3 on). The list shows a part of the results.
# Molecular target: T1, Msn1 (UniProt P22148)
# T1 sequence: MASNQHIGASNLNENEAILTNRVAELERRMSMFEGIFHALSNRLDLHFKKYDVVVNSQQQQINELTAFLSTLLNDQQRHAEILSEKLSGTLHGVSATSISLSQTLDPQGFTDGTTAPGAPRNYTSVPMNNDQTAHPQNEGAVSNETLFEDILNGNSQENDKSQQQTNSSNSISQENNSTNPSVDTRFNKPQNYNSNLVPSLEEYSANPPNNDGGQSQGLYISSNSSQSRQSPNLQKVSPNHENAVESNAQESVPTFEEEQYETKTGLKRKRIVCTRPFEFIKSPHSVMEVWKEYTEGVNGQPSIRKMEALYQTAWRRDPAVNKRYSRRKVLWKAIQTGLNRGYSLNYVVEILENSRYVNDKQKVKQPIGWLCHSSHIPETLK
# Test: PBM E-score (8-mer binding enrichment) (E-score (-0.5 to 0.5)); higher = stronger / more preferred TF binding; most listed sequences are background and not binding sites
# Details: protein concentration: 200 nM; construct: GST-full length
# How it was run: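 The E-score, a modified Wilcoxon-Mann-Whitney statistic, was computed by the Universal PBM Analysis Suite for every ungapped eight-base word pooled with its reverse complement. Scans behind it were normalised with masliner after bound GST-tagged yeast transcription factors were detected with fluorescent anti-GST. The proteins, at about 100-200 nM, had been applied to universal all-10-mer Agilent arrays made double-stranded by primer extension.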
row,Sequence,PBM E-score
1,CTGAATCA,0.0584
2,GCATGGAC,0.268
3,CAGACCGG,-0.152
4,ATTGATGC,-0.0539
5,CGATCGAG,-0.00159
6,GCATAACA,-0.13
7,CCGGCACA,0.111
8,ATATAAAA,0.187
9,AGAGGCCG,-0.32
10,ACGGTTTA,-0.14
11,ACTTATCT,0.0527
12,GTGAACGA,-0.0586
13,GCTTTTAC,0.0371
14,CACGAGAA,-0.115
15,CCATCGGA,-0.0237
16,CTCGTGAA,-0.0497
17,GACCTAGC,-0.075
18,GCGGTTAA,0.0384
19,AAAGCCCC,-0.163
20,CTCTGTGC,-0.113
21,CAAAAGAA,0.244
22,CCATGCTC,-0.189
23,CTTGTCTC,0.319
24,CAAGATTA,-0.0501
25,CAAAGCAG,0.0425

row,Sequence,PBM E-score
1,CTTTGATA,0.058
2,AGGAGGAG,-0.325
3,CGGTGTTC,0.0781
4,ACAGGCGT,-0.244
5,ACTTATAT,0.254
6,ATCTTTAA,0.182
7,AGGGGCGC,-0.123
8,AAACTTTC,0.0339
9,AAGGAGCC,-0.272
10,ACGTGAGG,-0.0988
11,ATTAATGA,0.185
12,ATCAGAGG,-0.139
13,AAACAATC,0.206
14,CGCTTGAA,0.174
15,CAATCCCA,-0.149
16,ATACATGG,0.0654
17,GGTACGAA,0.178
18,AGGCGAAT,-0.00718
19,GCTCACAC,-0.162
20,ATGCTGGG,-0.12
21,GAGATGCA,-0.1
22,AAGTCGGC,0.00893
23,AATTTACG,0.192
24,ACCAGTCG,-0.0766
25,ATCGTGTC,0.276

row,Sequence,PBM E-score
1,CAGAGAAA,0.118
2,CCAGATCG,-0.102
3,CGCAACAG,-0.0225
4,CCCACTTA,-0.0848
5,ATTTTCAA,0.165
6,ACATAGAA,0.0149
7,GCTCCCAC,-0.135
8,AGCTGCCA,-0.133
9,CAAACTAC,0.0778
10,CGTTCCGC,-0.0668
11,CTGGATTC,0.00621
12,CAGCCCTG,-0.307
13,ACTTCCTC,-0.219
14,CAGCGGAC,0.142
15,AAGACAAA,0.45
16,CTTTGATC,-0.14
17,CACTAAAG,0.0433
18,TAAAGGTA,0.0726
19,ATACCTCA,-0.0322
20,ATTACAAC,0.0519
21,CAGCTACC,-0.198
22,CAATCCGG,0.105
23,ATTGCTCA,0.157
24,AGATTGTG,-0.0281
25,ATTTGCTC,-0.114

row,Sequence,PBM E-score
1,CGACGCAG,-0.0485
2,TCCCGTAA,-0.0411
3,AACTGCAC,-0.00259
4,AACAGCTG,0.0499
5,GCTGAAGA,-0.12
6,AGAGAAAG,-0.0528
7,CCACTTCG,0.0364
8,CAACTGTA,0.00279
9,ATGTCAGG,0.158
10,CCCGAGGA,-0.0263
11,ATTGTTTC,0.182
12,TCTCGACA,0.0704
13,CACCTAAC,-0.0621
14,CTGGTTTA,-0.0342
15,GCTTTCGA,-0.175
16,AGTACACA,0.298
17,CTTATCTA,0.0318
18,ATGCGAAA,0.126
19,AGTGGGAC,0.118
20,ATAAGTAG,-0.0559
21,ACACAGGT,0.0743
22,CACAAGGG,-0.0472
23,AGGTGGCC,-0.314
24,AATGAAGA,0.143
25,GGCCCGCA,-0.252

row,Sequence,PBM E-score
1,CCTTCCAG,-0.226
2,AGATGCCA,-0.152
3,AGCCGCGC,0.00067
4,AGAGCGTG,-0.137
5,CCATGACC,-0.24
6,GAGTCTTA,-0.0395
7,GGTCTCCA,-0.154
8,AATTACGA,0.163
9,CCTTGACG,-0.238
10,GCCACCAA,-0.0334
11,CACACCAA,0.185
12,ATGTCATA,0.448
13,CTGCTCCA,-0.0514
14,TCGTCGAA,0.00104
15,AGCTTTTG,0.215
16,GTTCTAGA,0.152
17,AGCTACCT,-0.156
18,TCTGGGAA,-0.0386
19,ACTCGTCG,-0.0003
20,TATTTTCA,0.164
21,ATTGCGAG,-0.00222
22,AATCGACA,0.201
23,CCTAGTTC,0.00367
24,CAATGCGG,0.0138
25,AAGTATAG,-0.124

row,Sequence,PBM E-score
1,CACTAGGG,-0.274
2,GGACACAC,0.382
3,AGTACAAC,-0.0379
4,ACTCAGGG,-0.114
5,CGAGCGCG,0.0795
6,GAGCAACC,-0.0679
7,GGCTGTGA,-0.202
8,CGAACGGC,0.0318
9,ATTGAATA,0.231
10,ATTAGACG,-0.0227
11,ATCCACAG,-0.0125
12,ATTATGAG,0.0395
13,AACGAGGC,-0.135
14,AAAGTTGT,0.202
15,AGTCTTCA,-0.0192
16,AGTAGGGG,-0.202
17,GATTGCCA,-0.00196
18,CTGCGTTA,-0.0966
19,AACCAAAT,0.0939
20,ATAGACAT,0.428
21,CTTCGGCC,-0.0503
22,GCATGACA,0.199
23,GGAGACCC,-0.168
24,CGGCTGCC,-0.184
25,GATTTAGC,-0.0456

row,Sequence,PBM E-score
1,TCCAGTCA,0.0273
2,AGGATGTG,-0.0903
3,ACGGGCCG,-0.119
4,TAAACCAA,0.0103
5,ATTTACTC,0.123
6,AGCGTAAT,-0.00956
7,AGGTCGGA,0.114
8,CATGTATC,0.133
9,TGCTTAAA,0.0464
10,GCCCTTCA,-0.279
11,CGGTATCA,0.0871
12,CCAACGGG,-0.0639
13,AGAACATG,0.109
14,GACGTCCC,0.148
15,AAAGGTAA,0.0716
16,ATAACAAG,0.0352
17,CCTACAGG,-0.0974
18,TCTTTCCA,-0.0394
19,CCAGCCCG,-0.233
20,GACTACGC,-0.172
21,ACTATCCG,0.124
22,CTCCGGAA,0.0926
